This is an account of results in PubChem BioAssay AID1745853 (National Center for Advancing Translational Sciences (NCATS), 2022).

Some of the results follow. Shown are side measurements of this screen, not its main read-out; they come without a call.

What all share (assay): Primary Screen for Target Class Profiling of Small Molecule Inhibitors of Methyltransferases
For experiment [1], the target named is Glycine N-methyltransferase (Homo sapiens) (UniProt Q14749). Conditions: purified enzyme, MTase-Glo SAH luminescence; measured here: GNMT inhibition; at 40 µM; stronger effect = lower value. The method in brief:
(§1)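 Each enzyme was assayed with SAM and its substrate. SAH formation detected by MTase-Glo luminescence; single-point 40 uM screen[…].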

For experiment [2], the target named is Guanidinoacetate N-methyltransferase (Homo sapiens) (UniProt Q14353). To be noted: purified enzyme, MTase-Glo SAH luminescence; measured here: GAMT inhibition; at 40 µM; stronger effect = lower value. The method in brief: as §1
Experiment [3] concerns the target Histamine N-methyltransferase (Homo sapiens) (UniProt P50135). To be noted: purified enzyme, MTase-Glo SAH luminescence; measured here: HNMT inhibition; at 40 µM; stronger effect = lower value. The method in brief:
as §1

In experiment [4] the target is Nicotinamide N-methyltransferase (Homo sapiens) (UniProt P40261). To be noted: purified enzyme, MTase-Glo SAH luminescence; measured here: NNMT inhibition; at 40 µM; stronger effect = lower value. The method in brief: as §1
In experiment [5] the target is Phenylethanolamine N-methyltransferase (Homo sapiens) (UniProt P11086). Conditions: purified enzyme, MTase-Glo SAH luminescence; measured here: PNMT inhibition; at 40 µM; stronger effect = lower value. The method in brief:
as §1
% is scaled to controls: 0 for no effect and ±100 for the full control effect.

As for `C=C[C@@H]1[C@H](O[C@@H]2O[C@H](CO)[C@@H](O)[C@H](O)[C@H]2O)OC=C(C(=O)O)[C@H]1CCOC(=O)/C=C/c1ccc(O)c(O)c1`, the activity change, negative = inhibition was 1.16% in experiment [1]; -6.26% in experiment [2]; 1.45% in experiment [3]; -15.5% in experiment [4]; 1.72% in experiment [5].
On the same counts, the results for `O=C(NCc1ccc(Cl)cc1)c1c[nH]c2ncccc12` are -17.8%, -11.4%, -11%, -25.7% and -38.4%.
As for `CC(C)CC(=O)N1C(C(=O)NCC2CCCO2)COC12CCC(C)CC2` (stereo not given), the activity change, negative = inhibition is 1.65% in experiment [1]; -2.91% in experiment [2]; 1.68% in experiment [3]; 0.606% in experiment [4]; -0.47% in experiment [5].
For the molecule `COc1ccccc1CN1C(=O)c2nc3ccccc3n2CC1(C)C(=O)NC1CCC(C)CC1` (stereo not given), the activity change, negative = inhibition was -4.38% in experiment [1]; 0% in experiment [2]; 5.99% in experiment [3]; -20.4% in experiment [4]; -7.3% in experiment [5].
In the case of `CC(=O)NCc1nnc2n1C(C(=O)NC1CCCCCC1)CC2` (stereo not given), the activity change, negative = inhibition in experiment [1] is -4.26%; in experiment [2] it was -12.7%; in experiment [3], -4.31%; in experiment [4], -15.6%; in experiment [5] it was -9.23%.
On the same counts, the results for `COc1ccc(-c2cnc3n[nH]c(-c4ccccc4C)c3n2)cn1` are -22%, -12.6%, -28%, -15.4% and -7.38%.
For `COc1ccc2cc(C3CN(CCC(=O)NC(C)(C)C)CCO3)ccc2c1` (stereo not given) the same measures were -2.27%, -2.53%, 2%, -2.18% and -0.574%.
In the case of `CC(C)Cn1c(=O)c2ccccc2n2c(CCC(=O)NCCCOC(C)C)nnc12`, the activity change, negative = inhibition is -6.63% in experiment [1]; 2.07% in experiment [2]; 7.72% in experiment [3]; -1.5% in experiment [4]; -1.83% in experiment [5].
On the same counts, the results for `Cn1cncc1-c1nnc([C@H]2CCN(CC3CCCCC3)C2)o1` are -3.22%, -2.93%, -6.97%, -10.9% and -9.72%.
On the same counts, the results for `Cn1ccnc1C(=O)N1CCC(Cc2ccc(CCC(=O)N3CCCC3)cc2)CC1` are -6%, -8.34%, -2.42%, -13.4% and -9.7%.
In the case of `C=CCn1c(=O)c2ccc(C(=O)NC(C)C)cc2n2c(=O)n(CC(=O)N(C)c3ccc(F)cc3)nc12`, the activity change, negative = inhibition was found to be 7.87% in experiment [1]; 1.61% in experiment [2]; 4.79% in experiment [3]; 3.65% in experiment [4]; 8.62% in experiment [5].
Turning to `Cc1ccc(Cn2c(=O)c3ccccc3n3c(=O)n(CC(=O)NCc4ccccc4)nc23)cc1`, the activity change, negative = inhibition in experiment [1] turned out to be 4.67%; in experiment [2] it was 0%; in experiment [3], 11.4%; in experiment [4] it was 7.15%; in experiment [5], 3.96%.
For `O=C(C1CCCO1)N1CCN(c2nc(-c3cccnc3)nc3c2CNC3)CC1` (stereo not given) the same measures were -5.06%, -4.09%, -6.57%, -5.2% and -20.7%.
For `Cc1cccc(S(=O)(=O)N2CCC[C@@H]2CCN2CCC(C)CC2)c1` the same measures were -2.46%, 0.997%, 2.55%, -11.8% and -4.99%.
For `CCCCNC(=O)c1ccc2c(=O)nc3c(-c4ccccc4F)n[nH]n3c2c1` the same measures were -14.4%, 4.79%, 1.5%, 1.73% and -3.13%.
For `COc1cccc(NS(=O)(=O)c2ccc3c(c2)n(C)c(=O)n3C)c1`, the activity change, negative = inhibition is 0.292% in experiment [1]; 4.68% in experiment [2]; -0.243% in experiment [3]; 1.24% in experiment [4]; -2.19% in experiment [5].
On the same counts, the results for `Cc1ccc(Cn2c(=O)c3ccc(C(=O)NC(C)C)cc3n3c(=O)n(CC(=O)NC(C)(C)C)nc23)cc1` are 4.52%, 0.473%, 5.77%, 0.839% and 4.39%.
On to `CC(=O)N1CCN(NC(=O)c2ccc(F)cc2)CC1`, for which the activity change, negative = inhibition in experiment [1] is 6.58%; in experiment [2], 7.46%; in experiment [3], 13.2%; in experiment [4], -7.26%; in experiment [5], 3.9%.
`COC(=O)CC1CC(c2ccc(O)cc2)=NO1` (stereo not given): the activity change, negative = inhibition in experiment [1] is -5.51%; in experiment [2], -18.5%; in experiment [3] it was -8.53%; in experiment [4], -27.4%; in experiment [5] it was -13%.
Consider `c1ccc(-c2nnn3c2nc(N2CCc4ccccc4C2)c2ccccc23)cc1`, for which the activity change, negative = inhibition in experiment [1] was -19.8%; in experiment [2] it was -25.2%; in experiment [3] it was -25.9%; in experiment [4], -19.1%; in experiment [5] it was -28.8%.
For `Cc1ccc(Cn2c(=O)c3ccccc3n3c(CCC(=O)N4CCC(Cc5ccccc5)CC4)nnc23)cc1` the same measures were -2.72%, 5.87%, 3.92%, -3.16% and -1.38%.
On the same counts, the results for `Cc1cccc(NC(=O)c2cc3n(n2)CC(C)(C(=O)NC2CCCCC2)N(C)C3=O)c1C` (stereo not given) are 0.158%, 0.919%, 2.68%, 3.31% and 0.115%.
For `CN1CCN(c2ncnc3c2CN(C2CCCCC2)C(=O)CN3C)CC1` the same measures were -1.6%, -1.16%, -1.68%, -4.45% and 3.57%.
For `O=C(Cc1ccsc1)N1CCC(n2cc(-c3nc(-c4ccccc4)no3)nn2)C1` (stereo not given), the activity change, negative = inhibition in experiment [1] is -5.6%; in experiment [2] it was 0.395%; in experiment [3] it was 0.49%; in experiment [4], -13.1%; in experiment [5] it was -2.35%.
`O=C(NCc1ccccc1Cl)c1ccc2nnc(-c3ccoc3)n2c1`: the activity change, negative = inhibition in experiment [1] is -31.8%; in experiment [2] it was -12.7%; in experiment [3] it was -16.8%; in experiment [4], -27%; in experiment [5], -14.7%.
On the same counts, the results for `CCOCCCN1C(=O)c2cc3occc3n2CC1(C)C(=O)NC1CCCCC1` (stereo not given) are 1.5%, 5.85%, 2.4%, 8.8% and 1.25%.
In the case of `Cc1ccc(CCNC(=O)c2cc3c(=O)[nH]c(C)cn3n2)cc1`, the activity change, negative = inhibition in experiment [1] was -6.29%; in experiment [2], -7.27%; in experiment [3] it was -3.13%; in experiment [4] it was -14.8%; in experiment [5] it was -9.48%.
Take `C=CC(C)(CC/C=C(\C)CC/C=C(\C)CC(O)/C=C(\C)C(=O)O)O[C@@H]1O[C@H](CO)[C@@H](O)[C@H](O)[C@H]1O[C@@H]1O[C@H](CO)[C@@H](O)[C@H](O)[C@H]1O` (stereo not given in full): the activity change, negative = inhibition in experiment [1] is 0%; in experiment [2], -1.66%; in experiment [3], 0.728%; in experiment [4], -13.4%; in experiment [5], 4.53%.
On the same counts, the results for `O=C(CCc1nnc2n(CCc3ccccc3)c(=O)c3ccccc3n12)Nc1cccc(Cl)c1` are 1.96%, 1.78%, 8.68%, 2.27% and 0.044%.
On the same counts, the results for `CCOC(=O)c1cccc(NC(=O)N2CC[C@@H](CC(=O)NCc3ccccc3OC)[C@@H](CC)C2)c1` are -1.28%, -3.69%, -13.4%, -22% and 5.22%.
